About 2,200 (0.71%) of roughly 310,000 compounds showed an effect of 50% or more. Effects have a minus sign here. This is one part of the list.
Target: human ether-à-go-go-related gene (hERG) potassium channel (human, UniProt Q12809)
Experiment: primary screen, population patch clamp on CHO cells stably expressing hERG

human ether-à-go-go-related gene (hERG) potassium channel, sequence (Q12809 whole entry, looked up): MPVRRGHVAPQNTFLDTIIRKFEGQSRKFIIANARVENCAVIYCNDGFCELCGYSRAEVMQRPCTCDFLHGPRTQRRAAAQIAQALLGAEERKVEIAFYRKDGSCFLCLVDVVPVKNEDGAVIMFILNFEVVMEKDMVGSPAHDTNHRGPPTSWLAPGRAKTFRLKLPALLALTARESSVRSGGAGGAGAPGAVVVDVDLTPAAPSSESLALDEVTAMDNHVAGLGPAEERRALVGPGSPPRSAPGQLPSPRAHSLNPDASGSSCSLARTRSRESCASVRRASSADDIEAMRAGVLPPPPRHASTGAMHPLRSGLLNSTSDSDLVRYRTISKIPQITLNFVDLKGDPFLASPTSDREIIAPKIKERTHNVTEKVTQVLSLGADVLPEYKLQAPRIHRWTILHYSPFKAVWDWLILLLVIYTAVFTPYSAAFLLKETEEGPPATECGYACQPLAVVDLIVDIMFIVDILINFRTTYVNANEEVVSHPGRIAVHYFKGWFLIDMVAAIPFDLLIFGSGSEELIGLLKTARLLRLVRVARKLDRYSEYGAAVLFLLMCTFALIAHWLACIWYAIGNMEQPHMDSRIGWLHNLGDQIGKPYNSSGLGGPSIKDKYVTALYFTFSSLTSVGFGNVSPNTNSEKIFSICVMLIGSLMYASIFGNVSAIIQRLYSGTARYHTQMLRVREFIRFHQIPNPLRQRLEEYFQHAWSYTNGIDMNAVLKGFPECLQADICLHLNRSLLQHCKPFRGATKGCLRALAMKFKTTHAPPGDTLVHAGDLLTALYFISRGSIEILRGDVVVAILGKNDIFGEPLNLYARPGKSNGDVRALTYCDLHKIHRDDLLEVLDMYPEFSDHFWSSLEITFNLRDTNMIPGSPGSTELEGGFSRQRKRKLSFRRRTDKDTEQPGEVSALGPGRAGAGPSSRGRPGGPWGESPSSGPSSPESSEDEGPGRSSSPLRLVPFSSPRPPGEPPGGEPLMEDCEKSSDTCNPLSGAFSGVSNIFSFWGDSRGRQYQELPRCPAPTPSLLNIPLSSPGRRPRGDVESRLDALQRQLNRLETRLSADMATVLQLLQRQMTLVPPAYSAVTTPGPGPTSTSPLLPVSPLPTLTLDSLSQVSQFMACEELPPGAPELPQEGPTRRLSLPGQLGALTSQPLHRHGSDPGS

Question: How did the “hERG current change (%, negative = inhibition) at 1uM” value turn out when CCc1cccc(NC(=O)c2ccc(CNc3c(N4CCCC4)c(=O)c3=O)cc2)c1 was run?
Answer: The value was 12.4%.

Question: Which “hERG current change (%, negative = inhibition) at 1uM” value does the source give for CCC1(c2ccccc2)NC(=O)N(CC(=O)NCc2ccncc2)C1=O (stereo not shown) here?
Answer: Its value is 18.8%.

Question: For O=C(Nc1ccc(Cl)cc1)C(c1ccccc1)N(CCO)CCO (stereo not shown), which “hERG current change (%, negative = inhibition) at 1uM” value is on record?
Answer: Its value is -0.602%.

Question: Cn1nccc1C(=O)Nc1ccc(S(=O)(=O)N2CCCC2)cc1 was tested. Which “hERG current change (%, negative = inhibition) at 1uM” value did it give?
Answer: Its value is 16.7%.

Question: For Cc1ccc(OCC(=O)Nc2cccc(S(=O)(=O)N3CCOCC3)c2)c([N+](=O)[O-])n1, which “hERG current change (%, negative = inhibition) at 1uM” value is on record?
Answer: Its value is 11.9%.

Question: For CC(C(=O)NCC1CCCCC1)N1CCN(S(=O)(=O)/C=C/c2ccccc2)CC1 (stereo not shown), which “hERG current change (%, negative = inhibition) at 1uM” value is on record?
Answer: Its value is 8.03%.

Question: For Cc1c(Cl)cccc1NC(=O)c1ccc(OCC(=O)NCc2ccccc2)cc1, which “hERG current change (%, negative = inhibition) at 1uM” value is on record?
Answer: The value was 11.6%.

Question: With Cc1c(Nc2cc(N3CCCCCC3)c3nonc3c2[N+](=O)[O-])c(=O)n(-c2ccccc2)n1C as the compound, how does the “hERG current change (%, negative = inhibition) at 1uM” value read?
Answer: The value was 4.47%.

Question: For Cc1cc(Nc2cccc(Cl)c2)c2ccccc2n1, which “hERG current change (%, negative = inhibition) at 1uM” value is on record?
Answer: The value was -15.9%.

Question: How did the “hERG current change (%, negative = inhibition) at 1uM” value turn out when CCCC(=O)OCC[N+](C)(C)C.[Cl-] was run?
Answer: The value was 8.49%.

Question: How did the “hERG current change (%, negative = inhibition) at 1uM” value turn out when O=C(Nc1ccc(Cl)cn1)Nc1ccccc1Cl was run?
Answer: The value was 11.3%.

Question: Cl.O=C(O)c1cccc(Nc2nc(C(F)(F)F)nc3ccccc23)c1 was tested. Which “hERG current change (%, negative = inhibition) at 1uM” value did it give?
Answer: Its value is 25.1%.

Question: How did the “hERG current change (%, negative = inhibition) at 1uM” value turn out when CN(CC(=O)Nc1ccccc1Br)C(=O)c1cc([N+](=O)[O-])ccc1N1CCOCC1 was run?
Answer: Its value is 17.8%.

Question: Which “hERG current change (%, negative = inhibition) at 1uM” value does the source give for CC(C)(C)c1ccc(S(=O)(=O)NCC(=O)Nc2sc3c(c2C(N)=O)CCCC3)cc1 here?
Answer: Its value is 11.2%.

Question: How did the “hERG current change (%, negative = inhibition) at 1uM” value turn out when CC(NCc1cccc(OCc2ccccc2)c1)C(O)c1ccccc1.Cl (stereo not shown) was run?
Answer: Its value is -1.76%.

Question: CCOC(=O)Cc1nc2nc(C)cc(C)n2n1 was tested. Which “hERG current change (%, negative = inhibition) at 1uM” value did it give?
Answer: The value was 2.61%.

Question: For Cc1ccc(OCC(O)CN2CCN(Cc3ccc4c(c3)OCO4)CC2)cc1C.Cl (stereo not shown), which “hERG current change (%, negative = inhibition) at 1uM” value is on record?
Answer: Its value is 5.88%.

Question: How did the “hERG current change (%, negative = inhibition) at 1uM” value turn out when COc1ccc(C(CC(=O)Nc2ncccc2C)N2Cc3ccccc3C2=O)cc1 (stereo not shown) was run?
Answer: Its value is 11.3%.

Question: COc1ccc(Cl)cc1NC(=O)CN(C)C(=O)c1ccc(C)s1 was tested. Which “hERG current change (%, negative = inhibition) at 1uM” value did it give?
Answer: The value was 3.75%.

Question: Cc1nc(N2CCCCC2)c2c(C)c(C(=O)Nc3ccccc3C(F)(F)F)sc2n1 was tested. Which “hERG current change (%, negative = inhibition) at 1uM” value did it give?
Answer: Its value is 7.99%.

Question: Which “hERG current change (%, negative = inhibition) at 1uM” value does the source give for CC(=O)NC(=S)NNC(=O)COc1ccc([N+](=O)[O-])cc1 here?
Answer: Its value is 14%.

Question: For CC(NC(=O)c1ccc(Cn2cc([N+](=O)[O-])cn2)cc1)c1ccccc1 (stereo not shown), which “hERG current change (%, negative = inhibition) at 1uM” value is on record?
Answer: Its value is 4.26%.

Question: For O=C(NNC(=O)c1cc(Cl)ccc1O)c1cccs1, which “hERG current change (%, negative = inhibition) at 1uM” value is on record?
Answer: Its value is 16.2%.

Question: How did the “hERG current change (%, negative = inhibition) at 1uM” value turn out when O=C1NC(=O)C(CC(=O)N(Cc2ccco2)C2(C(=O)NC3CCCCC3)CCCCC2)N1 (stereo not shown) was run?
Answer: Its value is 6.32%.

Question: With Cc1ccc(NC(=O)c2ccc(S(=O)(=O)NCc3cccnc3)cc2)cc1C as the compound, how does the “hERG current change (%, negative = inhibition) at 1uM” value read?
Answer: The value was 1.63%.

Question: For CCC(=O)NNc1ncnc2c1cnn2-c1ccccc1, which “hERG current change (%, negative = inhibition) at 1uM” value is on record?
Answer: Its value is 6.46%.

Question: COc1cccc(C2=NOC(C(=O)N3CCN(C(=O)c4ccco4)CC3)C2)c1 (stereo not shown) was tested. Which “hERG current change (%, negative = inhibition) at 1uM” value did it give?
Answer: The value was -16.3%.

Question: With Cn1c(=O)c2c(nc(CN3CCN(Cc4ccccc4)CC3)n2Cc2ccc(F)cc2)n(C)c1=O as the compound, how does the “hERG current change (%, negative = inhibition) at 1uM” value read?
Answer: The value was -38.2%.

Question: Which “hERG current change (%, negative = inhibition) at 1uM” value does the source give for COCCNc1nc(Cl)c(C#N)s1 here?
Answer: Its value is 12.9%.

Question: With CCOC(=O)c1c(NC(=S)Nc2ccccc2)sc2c1CCN(CCc1ccccc1)C2 as the compound, how does the “hERG current change (%, negative = inhibition) at 1uM” value read?
Answer: The value was 2.54%.

Question: Which “hERG current change (%, negative = inhibition) at 1uM” value does the source give for O=C(Nc1ccc(S(=O)(=O)N2CCCC2)cc1)C1CC(=O)N(CCc2ccc(F)cc2)C1 (stereo not shown) here?
Answer: Its value is 2.13%.

Question: For CCOc1cccc(-c2c(C(=O)N/N=C/c3sccc3C)nnn2-c2nonc2N)c1, which “hERG current change (%, negative = inhibition) at 1uM” value is on record?
Answer: The value was 8.98%.

Question: With CCCOc1ccc(-c2c(=O)n(OCc3ccc([N+](=O)[O-])cc3)c3ccccc3[n+]2[O-])cc1 as the compound, how does the “hERG current change (%, negative = inhibition) at 1uM” value read?
Answer: The value was 3.08%.

Question: With Cc1cccc(C(=O)NNC(=O)c2ccc(F)cc2)c1 as the compound, how does the “hERG current change (%, negative = inhibition) at 1uM” value read?
Answer: Its value is 12%.

Question: With CC1CCCCN1c1ncnc(N)c1[N+](=O)[O-] (stereo not shown) as the compound, how does the “hERG current change (%, negative = inhibition) at 1uM” value read?
Answer: Its value is 7.54%.

Question: With CCOC(=O)N1CCC(n2c(=S)[nH]c3ccccc3c2=O)CC1 as the compound, how does the “hERG current change (%, negative = inhibition) at 1uM” value read?
Answer: Its value is 5.07%.

Question: For CCn1c(CCC(=O)Nc2nc3c(s2)CCCC3)nc2cc(S(=O)(=O)N(C)C)ccc21, which “hERG current change (%, negative = inhibition) at 1uM” value is on record?
Answer: Its value is 2.22%.

Question: With COc1ccc(S(=O)(=O)Nc2ccc(Cl)cn2)cc1 as the compound, how does the “hERG current change (%, negative = inhibition) at 1uM” value read?
Answer: The value was 0.261%.

Question: Which “hERG current change (%, negative = inhibition) at 1uM” value does the source give for CCCNc1ccc(S(=O)(=O)N(CC)CC)cn1 here?
Answer: Its value is 8.83%.

Question: Which “hERG current change (%, negative = inhibition) at 1uM” value does the source give for CCN(c1ccc(C(O)(C(=O)OC)C(F)(F)F)cc1)S(=O)(=O)c1ccccc1 (stereo not shown) here?
Answer: The value was 7.08%.

Question: Which “hERG current change (%, negative = inhibition) at 1uM” value does the source give for O=C1CC(SCCc2nc3ccccc3[nH]2)C(=O)N1c1ccc(F)c(Cl)c1 (stereo not shown) here?
Answer: The value was -4.92%.

Question: Which “hERG current change (%, negative = inhibition) at 1uM” value does the source give for CCOC(=O)c1cnc(SCC(C)C)nc1N here?
Answer: The value was -2.08%.

Question: With COc1ccc(Cl)cc1C(=O)NCc1cn(C)nc1C as the compound, how does the “hERG current change (%, negative = inhibition) at 1uM” value read?
Answer: Its value is 15.6%.

— article PMC4336329 (PLoS ONE, 2015)
